In all, about 16,000 sequences were measured (“Z-score”: median about -0.37, highest 2% from about 3.2 on). The list shows a part of the results.
System: RBM10 RRM1-ZnF (GST-tagged construct)
Test: RNAcompete 7-mer binding Z-score; higher = stronger binding preference
Description: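 RNAcompete: 20 pmol GST-tagged RBM10 RNA-binding constructs were incubated with a designed RNA pool of about 241,000 sequences up to 41 nt (1.5 nmol) on glutathione beads for 30 min at 4 °C and washed. Bound RNAs were identified by microarray hybridisation. Each RNA 7-mer is scored by a one-sided Z-score of its enrichment, computed over probes that contain the 7-mer within longer pool sequences.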

Sequence	RNAcompete 7-mer binding Z-score
CCGGCCU	-0.743
UUUAGCA	-0.652
AUCAAAG	-0.295
UACGCGC	-0.396
GAACAAC	-0.233
CCUAGAU	-0.626
UGGGGGA	3.71
CUGCGAU	-0.73
GGUACAC	0.638
ACCUAAU	-0.863
ACGUGCG	-0.0479
GCUUCGC	-0.623
UCCAAUC	-0.847
AAUGGGC	2.5
UACUACC	-0.811
UCAUUUG	-0.756
CCAGAAG	-0.37
GCCCCUC	-0.295
GUUGGCC	0.218
CGGACUC	-0.415
AGAACCA	-0.769
UCUGGAA	-0.23
GAACUAA	-0.285

Sequence	RNAcompete 7-mer binding Z-score
GUUUGGG	3.59
CCCCAGA	-0.386
UUGUAGG	1.67
AUGAAAC	-0.444
ACGGUGA	1.1
ACCUCAC	-0.678
AAUUGGA	1.6
GUACACU	-0.279
UGGGCAG	2
UUAUUCA	-0.555
GUACUAA	-0.236
AGUAUGU	0.0203
CUUGGAG	0.608
UACCCAU	-0.948
AUCGACA	-0.392
CGCAUAC	-0.61
CCUGUCU	-0.808
ACGUAUU	-0.503
UCAUCGU	-0.639
UCGUGCA	-0.555
CAUUUCG	-0.915
CUAGAUG	-0.188
CGCGCUG	-0.129

Sequence	RNAcompete 7-mer binding Z-score
CGAGCGG	3.69
GGGUCGA	1.84
ACAUUCG	-0.649
GAUGCGG	2.18
UCAUUGA	-0.259
UAUAGAA	-0.11
GUAAAAG	0.901
CCCACGC	-0.259
CAACUGU	-0.668
CACUGAG	-0.106
UAGGGAU	2.45
ACCAUUA	-0.847
CCGGGUA	0.625
GCUCGGC	-0.0772
AACGCGU	-0.259
UCGAUUG	-0.314
UAACGAA	-0.535
GAGAGAC	0.186
UACAUCG	-0.503
CCAUAAC	-0.769
GGAGUUC	0.426
GGGUAAU	3.01
CAGCAGA	0.326

Sequence	RNAcompete 7-mer binding Z-score
GAUAAUA	0.166
UGCCCGA	-0.431
AGUCUCA	-0.668
UGCGCAG	0.128
AAAUAGC	-0.279
GACGAGU	0.365
CGGCCUA	-0.772
CAGAGAA	0.0658
GACGAUU	-0.23
AUGCGGC	-0.0187
UGAUGGC	0.673
UAUAUCG	-0.363
CAUCCUC	-0.746
GGUCAAU	0.293
AGAAGUA	0.173
UUGAACA	-0.428
AACGGUG	1.56
CAUGGCC	-0.548
CAAACGA	-0.347
GUACGUG	0.384
GGUAUCC	0.00729
AGGCGCU	-0.116
ACUAGCC	-0.704

Sequence	RNAcompete 7-mer binding Z-score
CGCCUGG	-0.253
AUAGAAG	0.605
GGCCGCC	-0.532
AGACAUG	0.17
UGUGUCA	-0.503
UCCGCUU	-0.86
CUAUAUC	-0.789
GCAGCGA	0.381
UUAUUGU	-0.457
UGGCCAG	0.03
GCCCGUC	-0.552
GGUAACA	1.02
CUCUGUC	-0.834
UGCCUAG	-0.35
CGAUCCC	-0.698
CUCGACA	-0.714
CAAUUCC	-0.824
AGCGGGG	4.14
UAGUCUG	-0.474
AUAAGUG	0.465
UUAACAA	-0.402
AUUCAGC	-0.681
CUCAAAC	-0.756

Sequence	RNAcompete 7-mer binding Z-score
AGCUGUA	-0.422
CAAGUCA	-0.578
ACAUGCC	-0.87
AUAGUCG	-0.145
AUAUGUA	-0.288
GAGUCGA	0.319
UGCCGAA	-0.321
CAGUGAG	0.706
AUCCUUC	-0.795
AGGGAAA	4.7
GCCACCU	-0.6
GGAAUCG	0.992
GAUCUUG	-0.565
CAGUGCU	-0.357
GCCUAGG	0.128
GCAAGGC	0.352
CAACUAG	-0.392
AGGACGU	0.504
AGCAUAU	-0.477
UUCCUCG	-0.681
AGCUGGA	0.8
AUAUUUG	-0.405
AGAUGAU	0.287

Sequence	RNAcompete 7-mer binding Z-score
GCCAAAG	-0.386
AAUCGAC	-0.425
AACGUAA	-0.425
CGGCUAC	-0.454
AAUGCUG	-0.0479
UUUUUUG	-0.402
GCCCUCA	-0.789
UCGGCUC	-0.694
GGCACCU	-0.178
GCCGUAG	-0.162
GGUGUGC	2.3
UUGUUUA	-0.629
CGGUUAA	0.495
CGGUAUA	0.287
ACCCUUU	-1.02
UACUCUC	-0.711
GACUAUC	-0.665
CCGCGAC	-0.74
CUCUCCC	-0.558
AGAAGGA	3.99
UGACAAA	-0.545
GGCGGAC	1.19
AUGCCAU	-0.685

Sequence	RNAcompete 7-mer binding Z-score
GUGAGCU	0.517
GAUUCGA	-0.269
CGAUGUU	-0.425
CUCAAUC	-0.769
GGGUACC	1.18
ACCCAAC	-0.6
AUCAGCC	-0.805
GGGCAGG	3.39
UAACGCG	-0.253
CAGCUAU	-0.668
CUCGCCG	-0.688
GAGUACC	-0.139
GGGCGGU	2.28
UCCGAGG	0.105
CCUUCGA	-0.922
AGGGAUA	4.2
CGUGGAA	1.19
GCUUUAC	-0.694
CCGCAUU	-0.766
AGGUCUG	-0.113
CAAAGUU	-0.457
ACGUCAU	-0.513

Source: the supplement of paper PMC5499739
